{"source": "paper PMC6555819", "note": "The list shows a part of the results. For part of these data: At the low end of the ranking the order means little.", "data": [{"target": "T1, RARa (Homo sapiens) (UniProt P10276)", "T1 sequence": "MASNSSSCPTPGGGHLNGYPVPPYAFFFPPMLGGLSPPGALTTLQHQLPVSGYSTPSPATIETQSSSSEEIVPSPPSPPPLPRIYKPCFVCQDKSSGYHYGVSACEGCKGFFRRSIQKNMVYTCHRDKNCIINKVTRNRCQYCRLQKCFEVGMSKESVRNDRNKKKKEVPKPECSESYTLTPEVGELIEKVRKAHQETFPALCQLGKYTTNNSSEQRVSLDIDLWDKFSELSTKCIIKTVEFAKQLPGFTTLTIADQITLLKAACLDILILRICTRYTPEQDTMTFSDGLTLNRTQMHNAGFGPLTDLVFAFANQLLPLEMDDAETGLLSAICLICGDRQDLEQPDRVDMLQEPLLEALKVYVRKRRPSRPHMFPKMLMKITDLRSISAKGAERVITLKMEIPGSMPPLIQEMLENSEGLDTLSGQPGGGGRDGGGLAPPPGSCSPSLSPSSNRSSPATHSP", "conditions": "270 nM, no RXRa, PBS pH 7.4, 2% milk, 0.02% Triton X-100, 1 mM DTT, BSA, 0.4 mg/ml salmon testes DNA; double strand, one strand shown", "values": [{"sequence": "GCGCCTCCTTCTTTCCTTTGTCATCTGGTGGTGGGAGCGATTGACAGCGTAGAATGAAGG", "binding signal (PBM z-score against 500 random probes)": 0.14}, {"sequence": "GCCCAAGATCTTGCCACTGCACTCCAGCCTGGATGAGCGATTGACAGCGTAGAATGAAGG", "binding signal (PBM z-score against 500 random probes)": -0.3}, {"sequence": "GCCAAGATAACCAGCTTATCTATCAGTTGGAGCAGAGCGATTGACAGCGTAGAATGAAGG", "binding signal (PBM z-score against 500 random probes)": 0.4}, {"sequence": "GCACAGCAAAGAGGCCAGCATGGCTAGAGCAGATCAGCGATTGACAGCGTAGAATGAAGG", "binding signal (PBM z-score against 500 random probes)": -1.04}, {"sequence": "GCATCAGGTCTGCACCTGCAGATGGCGAGGGTTGGCGCGATTGACAGCGTAGAATGAAGG", "binding signal (PBM z-score against 500 random probes)": -0.46}, {"sequence": "GCTGCTGACTTGCTGGTTAGAGGGAACACATTCCCAGCGATTGACAGCGTAGAATGAAGG", "binding signal (PBM z-score against 500 random probes)": -0.38}, {"sequence": "GCGCAGTGGGTCACTTGAGACCAGCCTGGGCAACGCGCGATTGACAGCGTAGAATGAAGG", "binding signal (PBM z-score against 500 random probes)": -1.15}, {"sequence": "GCTCACCGTGTTAGCCAGGATGGTCTCAATCTCCTGGCGATTGACAGCGTAGAATGAAGG", "binding signal (PBM z-score against 500 random probes)": -0.8}, {"sequence": "GCTATAGGAAGCAGGATGTTTCTTGAGAGTGTGGCCGCGATTGACAGCGTAGAATGAAGG", "binding signal (PBM z-score against 500 random probes)": -0.69}]}, {"tested_on": "RARa:RXRa", "conditions": "270 nM : 90 nM RXRa, PBS pH 7.4, 2% milk, 0.02% Triton X-100, 1 mM DTT, BSA, 0.4 mg/ml salmon testes DNA; double strand, one strand shown", "values": [{"sequence": "GCTCTTGTAGATCGACAGGAGGTTAAGAAAGATCGAGCGATTGACAGCGTAGAATGAAGG", "binding signal (PBM z-score against 500 random probes)": 0.46}, {"sequence": "GCGCTAGCAAGCCATTTGGGTCACTCAATGACGGGCGCGATTGACAGCGTAGAATGAAGG", "binding signal (PBM z-score against 500 random probes)": 0.48}, {"sequence": "GCTCTTGTAGATCAGCAGGTTCAGAAAGCTGGCCAAGCGATTGACAGCGTAGAATGAAGG", "binding signal (PBM z-score against 500 random probes)": 0.45}, {"sequence": "GCTCGAGTAGGTTAGTCGGGGCATTAAGCCAACATAGCGATTGACAGCGTAGAATGAAGG", "binding signal (PBM z-score against 500 random probes)": 0.47}, {"sequence": "GCCCTATTAGTTGACCATAGGGGCAACCGAAGCTCGGCGATTGACAGCGTAGAATGAAGG", "binding signal (PBM z-score against 500 random probes)": 0.45}, {"sequence": "GCTAGCCTAGGGCAGATCGGGCCAGTATACGCTATAGCGATTGACAGCGTAGAATGAAGG", "binding signal (PBM z-score against 500 random probes)": 0.41}, {"sequence": "GCCGAACTCGGTCATTGACAGGACAGTGAATAGTAAGCGATTGACAGCGTAGAATGAAGG", "binding signal (PBM z-score against 500 random probes)": 0.44}, {"sequence": "GCAGTCAAATTTCAGGACGAGGTAACGTAAAGCACGGCGATTGACAGCGTAGAATGAAGG", "binding signal (PBM z-score against 500 random probes)": 0.43}, {"sequence": "GCCCTGCTCGGTCAATGGTCAGCTAAAGCAGCTCGCGCGATTGACAGCGTAGAATGAAGG", "binding signal (PBM z-score against 500 random probes)": 0.25}, {"sequence": "GCACTATCAGTTGACTTAGGGCAACCGATACGACGCGCGATTGACAGCGTAGAATGAAGG", "binding signal (PBM z-score against 500 random probes)": 0.47}, {"sequence": "GCTCGAGTAGGTTAGCCGGGGCATTCAGCCAACATAGCGATTGACAGCGTAGAATGAAGG", "binding signal (PBM z-score against 500 random probes)": 0.48}, {"sequence": "GCTCTATAAGTTGATTAGGGCAACCGAAACAGCGGAGCGATTGACAGCGTAGAATGAAGG", "binding signal (PBM z-score against 500 random probes)": 0.49}, {"sequence": "GCGTACCAAGGTGAGTAGGTCGTTGATGAGTAGGCGGCGATTGACAGCGTAGAATGAAGG", "binding signal (PBM z-score against 500 random probes)": 0.39}, {"sequence": "GCGCTATTAGTTGAAAGGGAAACCGAATGATTCTCGGCGATTGACAGCGTAGAATGAAGG", "binding signal (PBM z-score against 500 random probes)": 0.2}, {"sequence": "GCCCGACTGGGGCCAGGTTACCATAACGCACAGCCAGCGATTGACAGCGTAGAATGAAGG", "binding signal (PBM z-score against 500 random probes)": 0.18}, {"sequence": "GCAGAATGTGGTTATACGTAGATCAGGGAAGAAAGTGCGATTGACAGCGTAGAATGAAGG", "binding signal (PBM z-score against 500 random probes)": 0.28}, {"sequence": "GCGCTCGCAGGCCATTTGGGTCACTCAATGACGGGCGCGATTGACAGCGTAGAATGAAGG", "binding signal (PBM z-score against 500 random probes)": 0.49}, {"sequence": "GCCTACCAAGGTGAACAAGGTAGTTGATTACTATTCGCGATTGACAGCGTAGAATGAAGG", "binding signal (PBM z-score against 500 random probes)": 0.46}, {"sequence": "GCTCGAGTAGGTTACGGGCGCATTCAGGGATGAAGAGCGATTGACAGCGTAGAATGAAGG", "binding signal (PBM z-score against 500 random probes)": 0.35}, {"sequence": "GCATCTCTTGGTAACCAAGTTCAGTGAATGCCGAACGCGATTGACAGCGTAGAATGAAGG", "binding signal (PBM z-score against 500 random probes)": 0.47}, {"sequence": "GCATCTCTAGGTAAGACTCAGTTCAGTTAAGAACGCGCGATTGACAGCGTAGAATGAAGG", "binding signal (PBM z-score against 500 random probes)": 0.5}, {"sequence": "GCTCATATCGGTAAATGCTAGGTGAAAGTCCGATCTGCGATTGACAGCGTAGAATGAAGG", "binding signal (PBM z-score against 500 random probes)": 0.46}, {"sequence": "GCCGAACTAGGTCAGAACAGCACAGTGAAGGATGATGCGATTGACAGCGTAGAATGAAGG", "binding signal (PBM z-score against 500 random probes)": 0.42}, {"sequence": "GCAGAATTAGGTTACCAAAGATCAGGGAAACGCTTGGCGATTGACAGCGTAGAATGAAGG", "binding signal (PBM z-score against 500 random probes)": 0.34}, {"sequence": "GCCCAGACAGGTGAGAGGGTAACTCAGCCTCGATTAGCGATTGACAGCGTAGAATGAAGG", "binding signal (PBM z-score against 500 random probes)": 0.44}, {"sequence": "GCTCTCGGAGGACACGAAGGTCTGAGCTTTCCAGAGGCGATTGACAGCGTAGAATGAAGG", "binding signal (PBM z-score against 500 random probes)": 0.11}, {"sequence": "GCTAGCCTAGGTCGTGCGGGCCAGTATAGTGTCGGCGCGATTGACAGCGTAGAATGAAGG", "binding signal (PBM z-score against 500 random probes)": -0.17}, {"sequence": "GCACTATTAGTTGACTTTGGGCAACCGATACGACGCGCGATTGACAGCGTAGAATGAAGG", "binding signal (PBM z-score against 500 random probes)": 0.48}, {"sequence": "GCCGAACGAGGGCATGAGTTGATAGCCAATGCCGATGCGATTGACAGCGTAGAATGAAGG", "binding signal (PBM z-score against 500 random probes)": 0.5}, {"sequence": "GCTCTGCTAGGTCAGTTGGTCAGCGAACGAGCTGCCGCGATTGACAGCGTAGAATGAAGG", "binding signal (PBM z-score against 500 random probes)": 0.46}]}]}
